# Source: article PMC4336329 (PLoS ONE, 2015)
# Among all 310,000 compounds or so, about 14,000 (4.5%) showed an effect of 50% or more. Effects have a minus sign here. The list shows a part of the results.
# Target: human ether-à-go-go-related gene (hERG) potassium channel (human, UniProt Q12809)
# Test: primary screen, population patch clamp on CHO cells stably expressing hERG
# 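Also: peak tail current of the secondary pulse compared with the same well before compound.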
# human ether-à-go-go-related gene (hERG) potassium channel, sequence (Q12809 whole entry, looked up): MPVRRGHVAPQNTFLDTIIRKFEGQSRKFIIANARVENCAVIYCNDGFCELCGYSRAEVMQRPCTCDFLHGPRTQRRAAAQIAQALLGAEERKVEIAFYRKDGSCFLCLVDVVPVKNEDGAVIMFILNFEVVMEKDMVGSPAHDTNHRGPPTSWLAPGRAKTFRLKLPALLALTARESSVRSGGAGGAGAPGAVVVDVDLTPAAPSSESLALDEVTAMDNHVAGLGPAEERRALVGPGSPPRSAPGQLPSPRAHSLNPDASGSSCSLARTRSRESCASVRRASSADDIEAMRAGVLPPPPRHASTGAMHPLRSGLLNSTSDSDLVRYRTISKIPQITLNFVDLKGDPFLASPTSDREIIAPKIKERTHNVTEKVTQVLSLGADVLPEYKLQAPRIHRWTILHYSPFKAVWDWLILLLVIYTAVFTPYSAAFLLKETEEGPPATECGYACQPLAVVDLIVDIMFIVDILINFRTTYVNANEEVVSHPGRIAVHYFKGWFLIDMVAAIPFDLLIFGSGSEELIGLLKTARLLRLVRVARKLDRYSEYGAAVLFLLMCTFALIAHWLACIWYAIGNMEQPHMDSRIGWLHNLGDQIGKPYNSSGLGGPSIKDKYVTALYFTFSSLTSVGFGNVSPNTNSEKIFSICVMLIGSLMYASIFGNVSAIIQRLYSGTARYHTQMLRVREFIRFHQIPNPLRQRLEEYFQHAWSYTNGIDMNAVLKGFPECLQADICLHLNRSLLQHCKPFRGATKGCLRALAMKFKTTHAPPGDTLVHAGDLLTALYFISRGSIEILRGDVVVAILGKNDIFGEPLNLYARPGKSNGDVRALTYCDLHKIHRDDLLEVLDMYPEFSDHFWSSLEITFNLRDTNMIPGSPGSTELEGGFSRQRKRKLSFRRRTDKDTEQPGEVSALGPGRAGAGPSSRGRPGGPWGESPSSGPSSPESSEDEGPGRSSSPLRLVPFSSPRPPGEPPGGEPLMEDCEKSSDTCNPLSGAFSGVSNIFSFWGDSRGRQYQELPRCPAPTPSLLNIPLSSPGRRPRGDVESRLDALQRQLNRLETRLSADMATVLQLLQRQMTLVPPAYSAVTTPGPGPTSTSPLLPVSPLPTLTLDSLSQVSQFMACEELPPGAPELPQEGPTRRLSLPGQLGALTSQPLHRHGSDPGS
row,SMILES,"hERG current change (%, negative = inhibition) at 10uM [%]"
1,O=C1C2CC=C(Cl)CC2C(=O)N1CCC[n+]1cccc2ccccc21 (centres unmarked),8.95
2,CCOC(=O)CC(NC(=O)CCc1c(C)nc2nc(C)nn2c1C)c1ccc(OC(C)C)cc1 (centres unmarked),-25.9
3,CC(=O)c1ccc2c(c1)C1C=CCC1C(c1cc3c(cc1Br)OCO3)N2 (centres unmarked),12
4,O=C(O)COCC(=O)N1CCN(c2cc(C(F)(F)F)nc3ccccc23)CC1,19.4
5,COc1ccc(NCc2nc3ccccc3n2CCOc2ccccc2)cc1,2.18
6,CCOC(=O)N1CCN(c2ncnc3nc[nH]c23)CC1,8.95
7,COc1ccccc1C(CNC(=S)NCc1ccccc1)N1CCCC1 (centres unmarked),-2.75
8,Cc1c(C(=O)N2CCN(c3ccccn3)CC2)oc2ccccc12,-28
9,CCC(C(=O)NC(CC(=O)O)c1ccc(Cl)cc1)c1ccccc1 (centres unmarked),28.7
10,C/C=C(\C)CN1CCC(n2nccc2NC(=O)CCCc2ccccc2)CC1,-62.9
11,CCCCCCOc1ccc(N2C(=O)CC(NCc3ccc(S(N)(=O)=O)cc3)C2=O)cc1 (centres unmarked),7.3
12,CCn1c(-c2ccc[nH]c2=O)nc2ccccc21,-1.19
13,COc1ccc(NC(=O)c2ccc3nc(C)sc3c2)cc1,9.98
14,Cc1ccc(S(=O)(=O)N2CCOCC2)cc1NC(=O)Cn1nc(C)c([N+](=O)[O-])c1C,5.83
15,CCOC(=O)c1cnc2c(Cl)c(Cl)ccc2c1N1CCN(C)CC1.Cl,-55.5
16,COCCn1c(-c2ccc(-c3ccccc3Cl)o2)nc2c1c(=O)[nH]c(=O)n2CC(C)C,24.5
17,O=[N+]([O-])c1cc(C(F)(F)F)ccc1NCC1CCCO1 (centres unmarked),-5.59
18,O=S(N1CCCCC1)C12CC3CC(CC(C3)C1)C2 (centres unmarked),-6.95
19,CC(C)CN1C(=O)c2ccc(NC(=O)Cc3ccccc3)cc2C1=O,14
20,Cc1noc(C)c1S(=O)(=O)N(CC(=O)O)c1ccc2c(c1)OCO2,-2.68
21,CCN(CC)CCCN=Cc1c(O)n(CCc2ccc(OC)c(OC)c2)c(=O)[nH]c1=O,-3.75
22,Cc1[nH]n(-c2ccc([N+](=O)[O-])cc2)c(=O)c1C=NCCc1c[nH]c2ccccc12,13.2

row,SMILES,"hERG current change (%, negative = inhibition) at 10uM [%]"
1,COc1ccc(OC)c(CCNC(=O)c2ccc3c(c2)N(Cc2ccc(F)cc2)CCS3)c1,15.1
2,C=CCn1c(SCC(N)=O)nnc1-c1cnccn1,6.67
3,CCN(CC)C(=O)CSc1n[nH]c(=S)n1N,22.3
4,c1ccc(CNc2c3ccccc3nc3ccccc23)cc1,-77.1
5,Cc1cc(C(=O)NCc2cccs2)cs1,11.7
6,CN(C)C(=O)c1ccccc1-c1ccccc1,7.64
7,O=C(NCCOc1ccccc1)C1CCC(=O)N(C2CCCCCC2)C1 (centres unmarked),7.29
8,Cc1nn(Cc2ccccc2Cl)c(C)c1C(=O)NC1CCCc2ccccc21 (centres unmarked),-30.5
9,CCC1CCC(C(=O)NNC(=O)c2cc(-c3ccco3)[nH]n2)CC1 (centres unmarked),21.6
10,CC1CCCC/C1=N\NC(=S)NCCc1ccccc1 (centres unmarked),-4.34
11,COC(=O)c1sccc1NC(=O)Cc1ccc(Br)cc1,4.61
12,COc1cc2c(cc1OC)CN(Cc1ccc(C)cc1)CC2,-37.1
13,N#Cc1cccc(NC(=O)C2CCCN(C(=O)c3ccc(Cl)cc3)C2)c1 (centres unmarked),-36.2
14,CCC(=O)NCCc1nc2cc(NC(=O)c3ccc(Cl)cc3)ccc2n1C,-18.1
15,CCCCn1c(N)c(N(Cc2ccccc2OC)C(=O)CSCC(=O)Nc2cccc(C)c2)c(=O)[nH]c1=O,-7.33
16,CS(=O)(=O)C1=C(O)C(=O)N(c2ccccc2)C1c1ccccc1 (centres unmarked),8.13
17,O=C(NCC1COCCO1)C1CCN(S(=O)(=O)c2ccccc2)CC1 (centres unmarked),-7.05
18,O=C(c1csc2c1CCCC2)N1CCN(c2cccc(C(F)(F)F)c2)CC1,-1.76
19,CCC(=O)N1CCCc2cc(S(=O)(=O)N3CCN(c4ncccn4)CC3)ccc21,0.105
20,CCn1c(SCC(=O)NC2CCCCC2)nnc1-c1cc2cccc(OC)c2o1,-26
21,COc1cc(NC(=O)c2cccs2)cc(OC)c1,-3.13
22,Cn1c(=O)n(C)c2cc(S(=O)(=O)Nc3cc(Cl)ccc3O)ccc21,-6.04
